# Reference: patent publication US8669255B2, “Substituted octahydropyrrolo[1,2-a]pyrazines as calcium channel blockers” (AbbVie Inc., priority 2011, dated 2014)
# Molecular target: human Cav2.2 (Homo sapiens, UniProt Q00975)
# Test: In vitro assessment of calcium channel activity using FLIPR (Ca2+ influx in IMR32 cells)
# Format: cell-based
# Conditions: IMR32 cells endogenously expressing human Cav2.2; 60 minute pre-incubation; 2 μM nifedipine; depolarized with 80 mM KCl; average of at least two runs unless marked (*)
# Experimental: (i) In Vitro Assessment of Calcium Channel Activity Using FLIPR
# The IMR32 cells were maintained in MEM media containing 10% (v/v) FBS, 1% (v/v) antibiotic/antimitotic, 1% (v/v) sodium pyruvate and 1% (v/v) MEM NEAA. Following dissociation in 0.05% (v/v) trypsin/EDTA, cells were seeded into black 1×96-well plates (Corning Cellbind) at a density of 1-1.2×10^5 cells/well and incubated in the maintenance media above for 48 hours at 37° C. Immediately prior to performing the assay the media was removed and cells were loaded for 1.5 hours with 1× Calcium 4 dye prepared in HBSS (137 mM NaCl, 5.4 mM KCl, 0.25 mM Na2HPO4, 0.44 mM KH2PO4, 1.3 mM CaCl2, 1 mM MgSO4, 4.2 mM NaHCO3) containing HEPES pH 7.4 at room temperature. After dye loading and a subsequent 60 minute pre-incubation with compounds (full log dilutions from 10 μM to 0.1 nM) in the presence of 1.3 mM CaCl2 and 2 μM nifedipine to block endogenous L-type channels, the external Ca^2+concentration was increased to 5 mM CaCl2 and the cells concomitantly depolarized with 80 mM KCl to assay channel activity. To determine the IC50 values, the percent inhibition of the compound at each concentration was determined relative to the activity in the absence of inhibitor, and data was fitted using non-linear regression sigmoidal dose response curve analysis with GraphPad Prism®. Unless otherwise indicated (*), the reported values are average values from at least two runs (i.e., n≧2).
row,IC50 [µM],Compound
1,7.84,"O=C(c1ccc(F)c(Cl)c1)N1CCN2C[C@@H](Nc3nccc(C(F)(F)F)n3)C[C@H]2C1 [Example 34, (3-chloro-4-fluorophenyl)[(7S,8aS)-7-{[4-(trifluoromethyl)pyrimidin-2-yl]-amino}hexahydropyrrolo[1,2-a]pyrazin-2(1H)-yl]methanone]"
2,1.2,"NC(C(=O)N1CCN2C[C@H](Oc3cnc(C4CC4)cn3)C[C@H]2C1)c1cccc(C(F)(F)F)c1 (stereo partly drawn) [Example 200, 2-amino-1-[(7R,8aS)-7-[(5-cyclopropylpyrazin-2-yl)oxy]hexahydro-pyrrolo[1,2-a]pyrazin-2(1H)-yl]-2-[3-(trifluoromethyl)phenyl]ethanone]"
3,2.03,"CN[C@H](C(=O)N1CCN2C[C@H](Oc3cnc(C4CC4)cn3)C[C@H]2C1)c1cccc(C(F)(F)F)c1 [Example 186, (2S)-1-[(7R,8aS)-7-[(5-cyclopropylpyrazin-2-yl)oxy]hexahydropyrrolo[1,2-a]pyrazin-2(1H)-yl]-2-(methylamino)-2-[3-(trifluoromethyl)phenyl]ethanone]"
4,0.5,"CC(C)(Oc1cccc(C(F)(F)F)c1)C(=O)N1CCN2C[C@H](Oc3cnc(C4CC4)cn3)C[C@H]2C1 [Example 157, 1-[(7R,8aS)-7-[(5-cyclopropylpyrazin-2-yl)oxy]hexahydropyrrolo[1,2-a]-pyrazin-2(1H)-yl]-2-methyl-2-[3-(trifluoromethyl)phenoxy]propan-1-one]"
5,0.6,"O=S(=O)(N[C@H]1C[C@H]2CN(Cc3cccc(Cl)c3)CCN2C1)c1cccc(C(F)(F)F)c1 [Example 48, N-[(7S,8aS)-2-(3-chlorobenzyl)octahydropyrrolo[1,2-a]pyrazin-7-yl]-3-(trifluoromethyl)benzenesulfonamide]"
6,1.1,"O=C(c1cccc(C(F)(F)F)c1)N1CCN2C[C@H](Oc3ccc(Cl)cn3)C[C@H]2C1 [Example 63, [(7R,8aS)-7-[(5-chloropyridin-2-yl)oxy]hexahydropyrrolo[1,2-a]pyrazin-2(1H)-yl][3-(trifluoromethyl)phenyl]methanone]"
7,0.77,"COC(=O)N[C@@H](C(=O)N1CCN2C[C@H](Oc3cnc(C4CC4)cn3)C[C@H]2C1)c1ccc(C(F)(F)F)cc1 [Example 192, methyl{(1R)-2-[(7R,8aS)-7-[(5-cyclopropylpyrazin-2-yl)oxy]hexahydro-pyrrolo[1,2-a]pyrazin-2(1H)-yl]-2-oxo-1-[4-(trifluoromethyl)phenyl]ethyl}carbamate]"
8,2.39,"O=C(N[C@@H]1CCN2CCN(c3cccc(C(F)(F)F)n3)C[C@@H]12)c1cccc(F)c1 (relative stereo) [Example 98, 3-fluoro-N-{(8R*,8aS*)-2-[6-(trifluoromethyl)pyridin-2-yl]-octahydropyrrolo[1,2-a]pyrazin-8-yl}benzamide]"
9,1.94,"O=C(c1cccc(OC(F)F)c1)N1CCN2C[C@H](Oc3cnc(C4CC4)cn3)C[C@H]2C1 [Example 124, [(7R,8aS)-7-[(5-cyclopropylpyrazin-2-yl)oxy]hexahydropyrrolo[1,2-a]-pyrazin-2(1H)-yl][3-(difluoromethoxy)phenyl]methanone]"
10,1.82,"FC(F)(F)c1ccnc(N2CCN3C[C@@H](Nc4ccc(Cl)cn4)C[C@H]3C2)n1 [Example 38, (7S,8aS)-N-(5-chloropyridin-2-yl)-2-[4-(trifluoromethyl)pyrimidin-2-yl]-octahydropyrrolo[1,2-a]pyrazin-7-amine]"
11,1.96,"FC(F)(F)c1ccc(N2CCN3C[C@H](Oc4cnc(C5CC5)cn4)C[C@H]3C2)nc1 [Example 90, (7R,8aS)-7-[(5-cyclopropylpyrazin-2-yl)oxy]-2-[5-(trifluoromethyl)pyridin-2-yl]octahydropyrrolo[1,2-a]pyrazine]"
12,8.45,"CC(C)(C)OC(=O)N1CCN2C[C@@H](Nc3nccc(C(F)(F)F)n3)C[C@H]2C1 [Example 32, tert-butyl (7S,8aS)-7-{[4-(trifluoromethyl)pyrimidin-2-yl]amino}-hexahydropyrrolo[1,2-a]pyrazine-2(1H)-carboxylate]"
13,1.09,"O=C(c1cc(OC(F)(F)F)ccc1F)N1CCN2C[C@H](Oc3cnc(C4CC4)cn3)C[C@H]2C1 [Example 123, [(7R,8aS)-7-[(5-cyclopropylpyrazin-2-yl)oxy]hexahydropyrrolo[1,2-a]-pyrazin-2(1H)-yl][2-fluoro-5-(trifluoromethoxy)phenyl]methanone]"
14,1.59,"CC(O)(C(=O)N1CCN2C[C@H](Oc3cnc(C4CC4)cn3)C[C@H]2C1)c1cccc(C(F)(F)F)c1 (stereo partly drawn) [Example 176, 1-[(7R,8aS)-7-[(5-cyclopropylpyrazin-2-yl)oxy]hexahydropyrrolo[1,2-a]-pyrazin-2(1H)-yl]-2-hydroxy-2-[3-(trifluoromethyl)phenyl]propan-1-one]"
15,2.53,"CC(C)(C)OC(=O)N1CCN2C[C@@H](NS(=O)(=O)Cc3ccc(Cl)cc3)C[C@H]2C1 [Example 51, tert-butyl (7S,8aS)-7-{[(4-chlorobenzyl)sulfonyl]amino}hexahydro-pyrrolo[1,2-a]pyrazine-2(1H)-carboxylate]"
16,0.42,"CC(C)(C)OC(=O)NC(C(=O)N1CCN2C[C@H](Oc3cnc(C4CC4)cn3)C[C@H]2C1)c1ccc(C(F)(F)F)cc1 (stereo partly drawn) [Example 181, tert-butyl {2-[(7R,8aS)-7-[(5-cyclopropylpyrazin-2-yl)oxy]hexahydro-pyrrolo[1,2-a]pyrazin-2(1H)-yl]-2-oxo-1-[4-(trifluoromethyl)phenyl]ethyl}carbamate]"
17,2.71,"O=C(c1cccc(C(F)(F)F)c1)N1CCN2C[C@H](Oc3cnc(C4CC4)cn3)C[C@H]2C1 [Example 68, [(7R,8aS)-7-[(5-cyclopropylpyrazin-2-yl)oxy]hexahydropyrrolo[1,2-a]-pyrazin-2(1H)-yl][3-(trifluoromethyl)phenyl]methanone]"
18,> 30,"FC(F)(F)c1ccc(N2CCN3C[C@H](Oc4ccc(Cl)cn4)C[C@H]3C2)nc1 [Example 86, (7R,8aS)-7-[(5-chloropyridin-2-yl)oxy]-2-[5-(trifluoromethyl)pyridin-2-yl]-octahydropyrrolo[1,2-a]pyrazine]"
19,0.89,"O=S(=O)(N[C@H]1C[C@H]2CN(Cc3cc(Cl)cc(Cl)c3)CCN2C1)c1cccc(C(F)(F)F)c1 [Example 50, N-[(7S,8aS)-2-(3,5-dichlorobenzyl)octahydropyrrolo[1,2-a]pyrazin-7-yl]-3-(trifluoromethyl)benzenesulfonamide]"
20,1.18,"COC(=O)NC(C(=O)N1CCN2C[C@H](Oc3cnc(C4CC4)cn3)C[C@H]2C1)c1cccc(C(F)(F)F)c1 (stereo partly drawn) [Example 182, methyl {2-[(7R,8aS)-7-[(5-cyclopropylpyrazin-2-yl)oxy]hexahydro-pyrrolo[1,2-a]pyrazin-2(1H)-yl]-2-oxo-1-[3-(trifluoromethyl)phenyl]ethyl}carbamate]"
21,1.66,"CCC(CC)CN1CCN2C[C@@H](NS(=O)(=O)Cc3ccc(Cl)cc3)C[C@H]2C1 [Example 53, 1-(4-chlorophenyl)-N-[(7S,8aS)-2-(2-ethylbutyl)octahydropyrrolo[1,2-a]-pyrazin-7-yl]methanesulfonamide]"
22,4.22,"O=C(N[C@H]1C[C@H]2CN(C(=O)c3cccc(C(F)(F)F)c3)CCN2C1)c1ccc(Cl)cc1 [Example 4, 4-chloro-N-{(7S,8aS)-2-[3-(trifluoromethyl)benzoyl]octahydropyrrolo[1,2-a]pyrazin-7-yl}benzamide]"

row,Compound,IC50 [µM]
1,"Clc1ccc(O[C@@H]2C[C@H]3CNCCN3C2)nc1 [Example 57, (7R,8aS)-7-[(5-chloropyridin-2-yl)oxy]octahydropyrrolo[1,2-a]pyrazine]",> 30
2,"N#Cc1cccc(CC(=O)N2CCN3C[C@H](Oc4cnc(C5CC5)cn4)C[C@H]3C2)c1 [Example 147, 3-{2-[(7R,8aS)-7-[(5-cyclopropylpyrazin-2-yl)oxy]hexahydropyrrolo[1,2-a]pyrazin-2(1H)-yl]-2-oxoethyl}benzonitrile]",8.58
3,"O=C(Oc1cccc(OC(F)(F)F)c1)N1CCN2C[C@H](Oc3cnc(C4CC4)cn3)C[C@H]2C1 [Example 114, 3-(trifluoromethoxy)phenyl (7R,8aS)-7-[(5-cyclopropylpyrazin-2-yl)oxy]-hexahydropyrrolo[1,2-a]pyrazine-2(1H)-carboxylate]",2.12
4,"O=C(Cc1cccc(C(F)(F)F)c1Cl)N1CCN2C[C@H](Oc3cnc(C4CC4)cn3)C[C@H]2C1 [Example 139, 2-[2-chloro-3-(trifluoromethyl)phenyl]-1-[(7R,8aS)-7-[(5-cyclopropyl-pyrazin-2-yl)oxy]hexahydropyrrolo[1,2-a]pyrazin-2(1H)-yl]ethanone]",0.66
5,"O=C(Cc1cccc(C(F)(F)F)c1F)N1CCN2C[C@H](Oc3cnc(C4CC4)cn3)C[C@H]2C1 [Example 141, 1-[(7R,8aS)-7-[(5-cyclopropylpyrazin-2-yl)oxy]hexahydropyrrolo[1,2-a]-pyrazin-2(1H)-yl]-2-[2-fluoro-3-(trifluoromethyl)phenyl]ethanone]",0.45
6,"O=C(Oc1ccc(Cl)c(C(F)(F)F)c1)N1CCN2C[C@H](Oc3cnc(C4CC4)cn3)C[C@H]2C1 [Example 117, 4-chloro-3-(trifluoromethyl)phenyl (7R,8aS)-7-[(5-cyclopropylpyrazin-2-yl)oxy]hexahydropyrrolo[1,2-a]pyrazine-2(1H)-carboxylate]",1.72
